Test results taken from PubChem BioAssay AID504466 (National Center for Advancing Translational Sciences (NCATS), 2011).
In all, about 330,000 compounds went through this assay and about 4,200 (1.3%) were called active. The shares of active, inactive and inconclusive entries below differ from those in the screen. The call rests on the fitted dose curve; in most records, active means well fitted activation curve with a large enough effect; inconclusive means small, poorly fitted or top-dose-only effect; inactive means no such curve, though single readings can be large or run the other way. Where the call is inconclusive, the potency comes from a doubtful curve fit.

Test: qHTS screen for small molecules that induce genotoxicity in human embryonic kidney (HEK293T) cells expressing luciferase-tagged ELG1; further: nearly all actives have a fitted effect of over 60% in size; on activity change, positive = activation: % of control where 0% means no effect
Conditions: HEK293T ELG1-luciferase reporter, luminescence, 16 h; series mostly up to 46 µM; activity change, positive = activation: at the top concentration
Procedure, shortened: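 Quantitative HTS format in 1536-well plates. HEK293T ELG1-luciferase reporter cells receive test compound and are incubated 16 hr at 37 °C, 5% CO2; ONE-Glo added, 30 min room temperature, then luminescence read.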
Potency means the concentration at half of the fitted maximal effect; tags describe the fitted curve by direction and shape.

| SMILES | Potency | activity change, positive = activation |
| --- | --- | --- |
| CC1CCN(C(=S)NC(=O)c2ccco2)CC1 | inconclusive: 16.4 µM [activator, partial curve, poor fit] | – |
| COc1ccc(/C=N/Nc2nc3ccccc3[nH]2)c(OC)c1OC | inconclusive: 2.06 µM [activator, full curve, poor fit] | – |
| COC(=O)c1ccc(COn2nnc3ccccc32)cc1 | inconclusive: 3.26 µM [activator, full curve, poor fit] | – |
| Nc1c(-c2ccccc2)cnc2c(-c3ccccc3)cnn12 | active: 0.73 µM | – |
| COc1ccc2c(c1)oc(=O)c1cc(OC)ccc12 | active: 10.3 µM | – |
| COc1ccc(/C=C/c2nc(C)c(-c3ccccc3)c(=O)[nH]2)cc1OC | – | inactive: -0.314% |
| CC(C)CN1CN(Cc2ccccc2)CNC1=S | – | inactive: -0.573% |
| CCc1nnc(NC(=O)CSc2ccc(-c3ccc(-n4cccn4)cc3)nn2)s1 | active: 5.8 µM | – |
| CC(C)NC(=O)/C(C#N)=C/c1ccc(N(C)C)o1 | inconclusive: 25.9 µM [activator, partial curve, poor fit] | – |
| Cc1ccc(Nc2ncccc2C(=O)O)cc1C | inconclusive: 17.8 µM [activator, single point] | – |
| Cc1cc(=O)oc2cc(NC(=O)C(C)Oc3ccc(F)cc3)ccc12 (stereo unspecified) | – | inactive: 8.39% |
| CCCC(=O)Nc1ccc(-c2nc3cc(C)ccc3o2)cc1 | inconclusive: 2.06 µM [activator, partial curve] | – |
| CC(=O)/C=C\c1ccccc1OC(=O)c1cc2ccccc2oc1=O | – | inactive: 1.58% |
| O=C(/C=C\c1ccccc1[N+](=O)[O-])Nc1ccccc1 | inconclusive: 7.3 µM [activator, partial curve, poor fit] | – |
| O=C(Nc1cccnc1Cl)C1CCCN(c2ncnc3c2nc2n3CCCCC2)C1 (stereo unspecified) | – | inactive: -4.58% |
| COC(=O)c1ccc(NC(=O)Cn2nnc3ccccc32)cc1 | active: 16.4 µM | – |
| O=C(Nc1nc2ccc(Cl)cc2s1)c1cccc(N2C(=O)CCC2=O)c1 | inconclusive: 23.1 µM [activator, single point] | – |
| O=C(CCc1ccccc1)Nc1ccc2ccccc2n1 | inconclusive: 3.26 µM [activator, full curve] | – |

| SMILES | Potency | activity change, positive = activation |
| --- | --- | --- |
| O=C(Nc1ccc(C(=O)N2CCCCC2)cc1)Nc1cccc(Cl)c1 | – | inactive: 13.3% |
| N#CCSc1ccsc1C(=O)Nc1ccc(F)cc1 | inconclusive: 32.6 µM [activator, partial curve, poor fit] | – |
| CCCC(=O)N1CCN(c2nc3ccc(Cl)cc3s2)CC1 | inconclusive: 2.06 µM [activator, full curve, poor fit] | – |
| CCOc1cccc2c1OC(c1cc(OC)c(OC)c(OC)c1)N1N=C(c3ccc(C)o3)CC21 (stereo unspecified) | inconclusive: 7.31 µM [activator, partial curve] | – |
| CC1CSC(N(C(=O)c2ccc(S(C)(=O)=O)cc2)c2ccc(Cl)cc2)=N1 (stereo unspecified) | – | inactive: -5.55% |
| COc1ccc(C(=O)OCCc2ccc(O)cc2)cc1 | active: 13 µM | – |
| Cc1ccc2nc(C)cc(Nc3ccc([N+](=O)[O-])cc3)c2c1 | active: 5.8 µM | – |
| Cc1ccc2nc(-c3ccccc3)cn2c1 | inconclusive: 0.164 µM [activator, partial curve] | – |
| CCc1ccc(/C=C2/Sc3ccccc3N(CC(=O)NCC3CCCO3)C2=O)cc1 (stereo unspecified) | – | inactive: -7.34% |
| CNc1cnn(-c2ccc(C)cc2)c(=O)c1Sc1ccc(C)cc1 | – | inactive: 2.33% |
| Cn1c(=O)cc(OCC(=O)NCCCN2CCN(c3ccccc3F)CC2)c2ccccc21 | inconclusive: 17.8 µM [activator, partial curve, poor fit] | – |
| O=C(CCCCCCCC(=O)c1ccccc1)c1ccccc1 | – | inactive: -0.177% |
| CC(=O)[C@H]1CC[C@H]2[C@@H]3C=CC4=CC(=O)CC[C@@]4(C)[C@@H]3CC[C@]12C | inconclusive: 6.51 µM [activator, partial curve, poor fit] | – |
| O=C(Nc1ccc(F)c(F)c1)C1=COCCO1 | inconclusive: 16.4 µM [activator, partial curve, poor fit] | – |
| Cc1ccc(SCC(=O)N2CCCC2)cc1 | inconclusive: 18.4 µM [activator, single point] | – |
| Cc1ccccc1N(C(=O)Cc1c[nH]c2ccccc12)C(C(=O)NC1CCCCC1)c1ccco1 (stereo unspecified) | inconclusive: 29.1 µM [activator, partial curve, poor fit] | – |
| COc1ccc(-n2c(SCC(=O)Nc3ccc(C(N)=O)cc3)nc3c([nH]c4ccccc43)c2=O)cc1OC | inconclusive: 18.3 µM [activator, single point] | – |
| CC(=O)c1ccc(/C=C/c2nc3ccccc3n2C)o1 | active: 16.4 µM | – |
